Laboratory results from article PMC12136788.
Some of the results follow.

B1: chr10:95611293:95611394:-|CDS|ENSG00000059573|msi1|total|mutant (ssRNA)
RNA: GGGAGUUCUACAGUCCGACGAUCCCCCUCCGAAGUGAAGUCACUCCGAACUGAGUAUGGGGACCUGGAAUUAUGCAUUGAAGCCGUGGACAACGUUCAGGAUGCCAUUGACCACAUCCACAAGUAUGGCAGCUCCCACACGGACAACAGAGGAUUGAGCAUCA
B2: chr12:81257974:81259660:-|three_prime_utr|ENSG00000139220|control|control|control (ssRNA)
RNA: GGGAGUUCUACAGUCCGACGAUCAUGACUUAUUAAAAGCUGAAAAAUGUGAUUUUUGGGGGGAGUCAGAUAUUACAUUUGAUUAGUUUACUACAAAUUGUAAUAAAAUGCUUAAGUCAUUUGAAUAAUAAACAUCAUCUACAUCAACAGAGGAUUGAGCAUCA
B3: chr12:56162362:56162467:-|3pUTR|ENSG00000139613|unk|total|mutant (ssRNA)
RNA: GGGAGUUCUACAGUCCGACGAUCGGUUCCUCCCACCAGGCCCUUUGUUCCUCAUGUCCCCAUGUUUCUCUCCCUCUGCGUCUCCGCACCUUUCUUCUGUUCAAAGUUUUCUGUAAAUUUUCUCUUUUUUUCUUUCUUUCUUUUCAACAGAGGAUUGAGCAUCA
B4: chr1:217137657:217137758:-|5pUTR|ENSG00000196482|msi1|FALSE|unique (ssRNA)
RNA: GGGAGUUCUACAGUCCGACGAUCCGGGCUCCAGGCCGGGCUCCCUAAACGGGUCAGCAAUUGGAGCGGGAAGGCCGGACAGGUAGGUGGCGUGGGGCGCACAAGCCCGGCAGCGAUAACCGGGGACGUCUGUACUGCUUCCAACAACAGAGGAUUGAGCAUCA
B5: chr16:58599380:58599482:-|5pUTR|ENSG00000125107|unk|total|mutant (ssRNA)
RNA: GGGAGUUCUACAGUCCGACGAUCCAGAACAGAGUAAGACCCCUGGUAAAGAAGAACUGAAGAUAUUAUACAGAUACCAGAUACCGCCUAAUUACAAAGAAAGCAUUAACCUGCCUCUGAGGUGACUAAAGGGGAAUAAUGGUGCAACAGAGGAUUGAGCAUCA
B6: chr10:7163078:7163179:-|3pUTR|ENSG00000198879|unk|FALSE|unique (ssRNA)
RNA: GGGAGUUCUACAGUCCGACGAUCAGAGGUGCCUUUUAGGAAUACGGGGAGUGAAGGAAGGCCGGCAGGCAUCUCCAUGCAACUAGAUGGUUUGUUUGUUUGUUUGUUUGUUUGUUGUUCAUUUUGUUGUGUUUUUUGAGACAGCAACAGAGGAUUGAGCAUCA

biological target: MSI1 full-length (mouse, UniProt Q61474 1-362); test: nsRBNS (natural sequence RNA bind-n-seq); RBNS binding buffer (assumed for nsRBNS): 25 mM Tris pH 7.5, 150 mM KCl, 3 mM MgCl2, 0.01% Triton X-100, 500 ug/ml BSA, 20 U/ml SUPERase-In, 4 C; UNK is unkempt and MSI1 is Musashi-1; names of the RNAs are library labels; protein concentration not given here; high values mean tight binding
Chain of UniProt Q61474 (Q61474 whole entry): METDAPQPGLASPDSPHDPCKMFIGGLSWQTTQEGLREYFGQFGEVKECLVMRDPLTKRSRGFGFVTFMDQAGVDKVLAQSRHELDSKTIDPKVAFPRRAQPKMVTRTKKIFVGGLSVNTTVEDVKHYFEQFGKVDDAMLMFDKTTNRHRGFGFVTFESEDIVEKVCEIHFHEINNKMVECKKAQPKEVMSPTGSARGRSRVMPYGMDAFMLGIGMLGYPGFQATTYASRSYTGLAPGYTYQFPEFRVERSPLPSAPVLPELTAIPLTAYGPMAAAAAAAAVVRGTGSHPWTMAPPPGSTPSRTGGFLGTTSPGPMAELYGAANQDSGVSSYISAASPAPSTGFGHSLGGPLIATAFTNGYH

Compared with B1, B2 is higher in binding signal: 0.291 enrichment R for the first, 0.9 enrichment R for the second.

Going from B3 to B4, the binding signal falls from 1.14 enrichment R to 0.526 enrichment R.

Going from B5 to B6, the binding signal rises from 0.791 enrichment R to 2.59 enrichment R.
